{
  "source": "PubChem BioAssay AID686979",
  "about": "(National Center for Advancing Translational Sciences (NCATS), 2013)",
  "note": "In all, about 420,000 compounds went through this assay and about 50,000 (12%) were called active. The inconclusive results got no clear call from the source; some entries with a clear call stand among them for comparison. Calls come from the whole dose curve; as a rule, active = well fitted inhibition curve with a large enough effect; inconclusive = small, poorly fitted or top-dose-only effect; inactive = flat fitted curve, though single readings scatter. Potencies of inconclusive entries are left out as doubtful fits. % is set by controls: 0 for no effect and ±100 for the full control effect; potency is the fitted concentration of half-maximal effect; tags give direction and shape of the fitted curve.",
  "data": [
    {"experiment": "qHTS for Inhibitors of human tyrosyl-DNA phosphodiesterase 1 (TDP1): qHTS in cells in presence of CPT; note: nearly all actives have a fitted effect of over 55% in size", "settings": "chicken DT40 Tdp1-/-;hTDP1 cells + 20 nM CPT, ATP luminescence, 48 h; activity change, negative = growth inhibition: at 46.2 µM (top of the series) unless noted", "how_it_was_run": "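Chicken DT40 Tdp1-/- cells complemented with human TDP1, 400 cells/well, exposed to compounds plus 20 nM camptothecin for at least 48 h at 37 C; viability read as ATP content by CellTiter-Glo luminescence.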", "values": [
      {"smiles": "COC(=O)C1CCN(C(=O)c2ccc(SC)cc2OC)CC1", "activity change, negative = growth inhibition": "inactive: 6.73%"},
      {"smiles": "COC(=O)C1=C(N)OC2=C(C(=O)CC(C)(C)C2)C1c1ccoc1", "note": "(centres undefined)", "Potency": "inconclusive [inhibitor, single point]"},
      {"smiles": "COc1ccccc1N1CCN(C(=O)CSc2nc(-c3ccco3)cc(C(F)(F)F)n2)CC1", "Potency": "inconclusive [inhibitor, single point]"},
      {"smiles": "C[C@H](NC(=O)[C@@H]1CSC2c3ccccc3C(=O)N21)C(=O)NCc1c(F)cccc1Cl", "note": "(some centres undefined)", "Potency": "inconclusive [inhibitor, partial curve]"},
      {"smiles": "COc1ccc(-c2noc(C3CCCN(C(=O)c4ccc(F)cc4)C3)n2)cc1", "note": "(centres undefined)", "Potency": "inconclusive [inhibitor, single point]"},
      {"smiles": "CCOC(=O)c1ccc(NC(=O)c2c(NCc3cccc(OC)c3OC)sc3c2CCC3)cc1", "Potency": "active: 14.6 µM"},
      {"smiles": "Cc1c(C(C)NC(=O)c2cc(COc3cccc4cnccc34)on2)cnn1C", "note": "(centres undefined)", "Potency": "active: 23.1 µM"},
      {"smiles": "CCN(CC)c1ccc(NC(=O)C2CCCN(S(=O)(=O)c3cnc[nH]3)C2)c(C)c1", "note": "(centres undefined)", "Potency": "inconclusive [inhibitor, single point]"},
      {"smiles": "CC(C)(C)n1cnc2cc(NCc3ccc(Br)cc3)ccc21", "Potency": "inconclusive [inhibitor, single point]"},
      {"smiles": "Cc1ccc2nc(-c3ccc(C)o3)c(Nc3ccc(Cl)cc3)n2c1", "Potency": "inconclusive [inhibitor, single point]"},
      {"smiles": "CC(Sc1nnc2n1CCCCC2)C(=O)Nc1cccc(S(=O)(=O)N2CCOCC2)c1", "note": "(centres undefined)", "activity change, negative = growth inhibition": "inactive: 4.78%"},
      {"smiles": "COc1ccc(C(=O)COC(=O)CCc2ccccc2)cc1", "activity change, negative = growth inhibition": "inactive: -9.79%"},
      {"smiles": "CCC(C)c1ccc(OCC(=O)Nc2ccc(-c3nc4ncccc4o3)cc2)cc1", "note": "(centres undefined)", "Potency": "inconclusive [inhibitor, single point]"},
      {"smiles": "COc1cccc(COc2nc3c(c(=O)n(C)c(=O)n3C)n2C)c1", "activity change, negative = growth inhibition": "inconclusive: -30.6% [inhibitor]"},
      {"smiles": "COc1ccc(NC(=O)CSc2nnc(Cc3cccn3C)n2-c2ccc(OC)cc2)cc1", "Potency": "inconclusive [inhibitor, single point]"},
      {"smiles": "N#CNC(=Nc1ccc(Cl)cc1)Oc1ccccc1", "Potency": "inconclusive [inhibitor, single point]"},
      {"smiles": "COc1ccc(-n2cnc3scc(-c4ccc(OC)c(OC)c4)c3c2=O)cc1", "Potency": "inconclusive [inhibitor, single point]"},
      {"smiles": "CCN(CC)C(=O)Cn1cc(S(=O)(=O)CC(=O)NCc2ccc(F)cc2)c2ccccc21", "activity change, negative = growth inhibition": "inactive: -20.8%"},
      {"smiles": "C=C(NC(=O)C(=C)NC(=O)c1csc(C2=NC3c4csc(n4)C4NC(=O)c5csc(n5)C(C(C)(O)C(C)O)NC(=O)C5CSC(=N5)C(=CC)NC(=O)C(C(C)O)NC(=O)c5csc(n5)C3(CC2)NC(=O)C(C)NC(=O)C(=C)NC(=O)C(C)NC(=O)C(C(C)CC)NC2C=Cc3c(C(C)O)cc(nc3C2O)C(=O)OC4C)n1)C(N)=O", "note": "(centres undefined)", "Potency": "active: 4.11 µM"}
    ]}
  ]
}
